Assay results as given in publication PMC9408373.
No constants are given. Whether binding was seen depends on the method and setting. For some of these results: Binding seen in cells or lysates may run through a third protein. Some binding calls cover weakened binding; strength is not graded here.

By UniProt entry, the sequences of proteins in these tests, tags left out. Where a name states a change or a piece, a line headed by the entry shows the natural chain unless it says otherwise. Chains listed by the source or under a name are the forms on record and can include a tag or linker. Residues count along the entry.
human CDC42 (aa 1-178), wild type (P60953, residues 1-178): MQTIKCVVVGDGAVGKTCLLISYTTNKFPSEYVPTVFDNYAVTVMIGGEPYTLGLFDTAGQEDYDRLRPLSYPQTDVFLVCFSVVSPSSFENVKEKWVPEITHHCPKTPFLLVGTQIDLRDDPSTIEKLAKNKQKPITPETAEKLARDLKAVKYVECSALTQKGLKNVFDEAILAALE
GST-CDC42 A130K (P60953, form named): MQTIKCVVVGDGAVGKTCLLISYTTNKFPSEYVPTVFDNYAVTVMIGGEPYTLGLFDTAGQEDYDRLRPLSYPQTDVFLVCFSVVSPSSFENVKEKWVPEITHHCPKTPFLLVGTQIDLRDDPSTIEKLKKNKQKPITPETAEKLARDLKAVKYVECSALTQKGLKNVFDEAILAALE
GST-CDC42 S124D (P60953, form named): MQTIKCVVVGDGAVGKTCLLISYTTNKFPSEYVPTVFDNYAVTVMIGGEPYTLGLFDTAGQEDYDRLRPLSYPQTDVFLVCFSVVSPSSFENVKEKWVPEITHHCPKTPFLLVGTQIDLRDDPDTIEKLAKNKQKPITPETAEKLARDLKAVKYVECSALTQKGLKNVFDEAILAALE
human CDC42 (aa 1-178) Q61L (P60953, form named): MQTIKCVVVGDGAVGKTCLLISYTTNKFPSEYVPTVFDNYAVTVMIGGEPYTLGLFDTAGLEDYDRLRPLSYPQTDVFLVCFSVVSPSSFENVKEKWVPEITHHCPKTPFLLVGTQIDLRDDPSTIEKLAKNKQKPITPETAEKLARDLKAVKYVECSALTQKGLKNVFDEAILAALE
UniProt P46940: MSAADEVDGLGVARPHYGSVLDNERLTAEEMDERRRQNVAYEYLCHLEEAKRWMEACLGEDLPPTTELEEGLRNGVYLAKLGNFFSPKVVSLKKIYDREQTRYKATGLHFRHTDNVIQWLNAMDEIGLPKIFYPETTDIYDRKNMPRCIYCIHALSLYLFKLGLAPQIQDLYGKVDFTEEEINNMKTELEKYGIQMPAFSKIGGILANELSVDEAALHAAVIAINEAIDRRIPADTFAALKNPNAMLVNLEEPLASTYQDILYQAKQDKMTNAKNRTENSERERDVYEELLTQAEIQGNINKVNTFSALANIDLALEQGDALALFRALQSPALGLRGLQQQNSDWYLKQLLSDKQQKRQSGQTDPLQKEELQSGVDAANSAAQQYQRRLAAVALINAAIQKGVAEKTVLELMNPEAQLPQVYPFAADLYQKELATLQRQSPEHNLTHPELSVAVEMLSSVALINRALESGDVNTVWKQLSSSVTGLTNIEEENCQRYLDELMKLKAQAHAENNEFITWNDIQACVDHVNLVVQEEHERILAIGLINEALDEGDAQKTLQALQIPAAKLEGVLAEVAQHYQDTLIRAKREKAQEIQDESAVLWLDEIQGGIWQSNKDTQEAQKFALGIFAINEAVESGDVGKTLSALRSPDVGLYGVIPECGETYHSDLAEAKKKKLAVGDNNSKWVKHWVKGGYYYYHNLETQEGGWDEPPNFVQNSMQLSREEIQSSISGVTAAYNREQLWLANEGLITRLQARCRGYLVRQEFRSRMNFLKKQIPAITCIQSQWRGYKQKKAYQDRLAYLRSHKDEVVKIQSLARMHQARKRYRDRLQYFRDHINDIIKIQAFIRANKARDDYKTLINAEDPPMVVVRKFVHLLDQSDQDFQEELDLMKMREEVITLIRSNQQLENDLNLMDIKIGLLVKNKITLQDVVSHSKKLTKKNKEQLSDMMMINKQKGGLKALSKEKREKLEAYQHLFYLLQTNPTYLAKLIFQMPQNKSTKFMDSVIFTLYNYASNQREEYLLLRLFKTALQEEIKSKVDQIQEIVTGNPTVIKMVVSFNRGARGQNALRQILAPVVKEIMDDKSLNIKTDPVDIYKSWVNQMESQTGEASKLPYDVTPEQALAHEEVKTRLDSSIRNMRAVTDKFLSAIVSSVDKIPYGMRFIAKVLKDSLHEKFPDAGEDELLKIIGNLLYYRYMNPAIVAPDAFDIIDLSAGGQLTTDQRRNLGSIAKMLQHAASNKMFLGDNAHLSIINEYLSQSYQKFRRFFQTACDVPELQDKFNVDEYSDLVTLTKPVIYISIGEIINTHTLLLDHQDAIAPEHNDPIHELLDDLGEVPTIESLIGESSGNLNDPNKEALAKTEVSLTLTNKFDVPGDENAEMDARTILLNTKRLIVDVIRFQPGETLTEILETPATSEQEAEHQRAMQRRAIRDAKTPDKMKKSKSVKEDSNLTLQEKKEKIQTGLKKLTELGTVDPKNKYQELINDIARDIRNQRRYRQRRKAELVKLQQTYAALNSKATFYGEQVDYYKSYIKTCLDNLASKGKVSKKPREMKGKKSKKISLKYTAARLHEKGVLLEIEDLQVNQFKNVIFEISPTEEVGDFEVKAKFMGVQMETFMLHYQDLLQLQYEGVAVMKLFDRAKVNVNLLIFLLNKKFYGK

Assays:
GST-CDC42 A130K (human) [1] = target: GST-CDC42 A130K (human) (UniProt P60953); assay: pull-down; GDP-bound GST-GTPase on glutathione agarose beads, incubated with HEK293 lysate 1 h at 4 °C; blot with anti-IQGAP1; only the target purified
GST-CDC42 S124D (human) [2] = target: GST-CDC42 S124D (human) (UniProt P60953); assay: as above
[3] = target: GST-CDC42 wild type (human) (UniProt P60953); assay: as above
GST-CDC42 A130K (human) [4] = target: GST-CDC42 A130K (human) (UniProt P60953); assay: pull-down; GppNHp-bound GST-GTPase on glutathione agarose beads, incubated with HEK293 lysate 1 h at 4 °C; blot with anti-IQGAP1; only the target purified
GST-CDC42 S124D (human) [5] = target: GST-CDC42 S124D (human) (UniProt P60953); assay: as above
[6] = target: GST-CDC42 wild type (human) (UniProt P60953); assay: as above
[7] = target: human CDC42 (aa 1-178), wild type (human) (UniProt P60953); assay: fluorescence polarisation; 1 µM mant-GDP-bound CDC42 in the cuvette, IQGAP protein titrated; quadratic ligand binding equation; both purified
[8] = target: human CDC42 (aa 1-178), wild type (human) (UniProt P60953); assay: fluorescence polarisation; 1 µM mant-GppNHp-bound CDC42 in the cuvette, IQGAP protein titrated; quadratic ligand binding equation; both purified
[9] = target: human CDC42 (aa 1-178) Q61L (human) (UniProt P60953); assay: fluorescence polarisation; 1 µM mant-GDP-bound CDC42 in the cuvette, IQGAP protein titrated; quadratic ligand binding equation; both purified

Row | Substance | binding (GST-CDC42 A130K (human) [1]) | binding (GST-CDC42 S124D (human) [2]) | binding [3] | binding (GST-CDC42 A130K (human) [4]) | binding (GST-CDC42 S124D (human) [5]) | binding [6] | binding [7] | binding [8] | binding [9]
1 | IQGAP1 full-length, endogenous (from UniProt P46940 1-1657) | no binding | binds weakly | binds | no binding | binds weakly | binds | – | – | –
2 | human IQGAP1 CT (aa 1576-1657) (from UniProt P46940 1576-1657) (domain or fragment) | – | – | – | – | – | – | binds weakly | binds weakly | –
3 | human IQGAP1 GRD1 (aa 962-1345) (from UniProt P46940 962-1345) (domain or fragment) | – | – | – | – | – | – | binds weakly | – | binds weakly
